In the supplement of paper PMC3334620:
Whole data set: some 33,000 sequences, median “E-score (-0.5 to 0.5)” near -0.01, cut for the highest 2% near 0.26. This is one part of the list.

target: Ste12 (UniProt P13574); assay: PBM E-score (8-mer binding enrichment) (E-score (-0.5 to 0.5)); higher = stronger / more preferred TF binding; most listed sequences are background and not binding sites; settings: protein concentration: 200 nM; construct: GST-DNA-binding domain
How it was run: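 E-scores (a modified Wilcoxon-Mann-Whitney statistic) were assigned by the Universal PBM Analysis Suite to every ungapped eight-base word pooled with its reverse complement. The input came from universal all-10-mer Agilent arrays made double-stranded by primer extension and probed with GST-tagged yeast transcription factors at about 100-200 nM. Fluorescent anti-GST detected bound protein, and masliner normalised the scans.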

Point of comparison: ATGGCACG, “PBM E-score” value -0.0157. Against it:
- CTAAGTAG — lower, -0.0366
- AGTACCGG — lower, -0.261
- AGAATACC — higher, 0.116
- CATGCATG — lower, -0.178
- AGTGGCCA — lower, -0.124
- AACTCATT — lower, -0.0883
- TAGTTTAA — higher, 0.171
- ACCGCCGT — lower, -0.0967
- GCGTAGCA — higher, 0.0572
- TAACCCTA — lower, -0.0788
- AAAAGTGT — higher, 0.0304
- GGGACGTA — higher, 0.0585
- ACCCTGCA — higher, 0.0598
- CAACATGG — higher, 0.0422
- AACGATTA — higher, -0.00667
- ATCGGCGA — lower, -0.105
- ATACGTAT — higher, 0.19
- ATAGATTC — higher, 0.00524
- GCTCCCCA — lower, -0.151
- CTTGGGCA — higher, 0.0586
- GGGCAGGA — lower, -0.0883
- AAGCTTCC — lower, -0.121
- ATTATGTC — higher, 0.0876
- GCTCACCA — lower, -0.178
- TGTAGCAA — higher, 0.00056
- CTGTAGCC — lower, -0.148
- CGCTTACA — lower, -0.0519
- GCCCATAA — lower, -0.0817
- CTAACCTA — higher, 0.0297
- GAATCGAC — higher, 0.125
- GAGACTGA — lower, -0.151
- AATTACCA — higher, 0.17
- GAAAAGTA — higher, 0.249
- TTGCGAAA — higher, 0.234
- AAGTTTCC — higher, 0.11
- AAGCAAGC — higher, 0.227
- AGTGAGCG — lower, -0.176
- GTAAATAC — higher, 0.0368
- GGAGTGCA — higher, 0.146
- AATGTGCA — higher, 0.124
- GAATGAGA — higher, -0.00579
- AGCATGGG — lower, -0.0459
- ATACGATC — higher, 0.157
- CCGTTCCC — lower, -0.0627
- ACAGCAAT — higher, 0.0379
- GAGCAGCA — higher, 0.0309
- AAAGAATC — higher, 0.136
- GATCTGCC — higher, 0.0158
- GCCTGCAA — higher, 0.0142
- AGTGTAGC — higher, 0.111
- ACTTCGAT — higher, 0.0438
- CGCTACTC — lower, -0.089
- AAGGGGTG — lower, -0.0295
- CTAGAGGA — lower, -0.234
- GTAGTCAC — lower, -0.118
- AGAGCTAG — higher, -0.00688
- GGACCACC — lower, -0.0477
- GGCCCACA — lower, -0.0869
- CACGTGGC — lower, -0.229
- CCTGTTTA — higher, 0.0871
- CGAGTAAG — higher, 0.155
- GACAATCA — lower, -0.168
- CTTAAACC — lower, -0.0326
- ATCCGTAC — higher, 0.0195
- ACATGCAA — higher, 0.108
- CCTCGCGA — higher, 0.0144
- AGGCGGTC — lower, -0.102
- ACAAGTGG — higher, 0.00236
- CGATGAAC — higher, 0.124
- AGGATACG — lower, -0.265
- AGAAATAC — higher, -0.0119
- CTAACGGA — lower, -0.0211
- GGAACATA — higher, 0.103
- CTTTCTTC — higher, 0.0726
- CGATGTAG — lower, -0.0556
- AACAAATT — higher, 0.268
- AACACGGT — higher, 0.0872
- GAGGAGGC — lower, -0.138
- CTGAAACA — higher, 0.495
- ATGGTAGA — higher, 0.0532
- AGTATTTA — higher, 0.0755
- AGCTAGCT — lower, -0.0845
- GCGATGAA — higher, 0.116
- CTTCAAAC — higher, 0.218
- AGCTAGTA — lower, -0.0302
